Data taken from PMC10185812.
Numbering of substitutions follows the chain as printed. Results are given in words; binding and its absence hold for the method and conditions named. In cells and extracts the contact can be indirect. Some binding calls cover weakened binding; strength is not graded here. Sequences can lack the tags named with a protein.

Columns and labels:
[1] = biological target: T1, 3xFLAG-NEK1 (human) (UniProt Q96PY6); assay: co-IP; ARPE-19 transiently co-transfected with tagged C21ORF2 (GFP or 3xHA) and 3xFLAG-NEK1 (full length, truncated or mutated); immunoprecipitation with anti-FLAG antibodies; washes with 500 mM NaCl, 1% Triton X-100; immunoblotting
T1 sequence: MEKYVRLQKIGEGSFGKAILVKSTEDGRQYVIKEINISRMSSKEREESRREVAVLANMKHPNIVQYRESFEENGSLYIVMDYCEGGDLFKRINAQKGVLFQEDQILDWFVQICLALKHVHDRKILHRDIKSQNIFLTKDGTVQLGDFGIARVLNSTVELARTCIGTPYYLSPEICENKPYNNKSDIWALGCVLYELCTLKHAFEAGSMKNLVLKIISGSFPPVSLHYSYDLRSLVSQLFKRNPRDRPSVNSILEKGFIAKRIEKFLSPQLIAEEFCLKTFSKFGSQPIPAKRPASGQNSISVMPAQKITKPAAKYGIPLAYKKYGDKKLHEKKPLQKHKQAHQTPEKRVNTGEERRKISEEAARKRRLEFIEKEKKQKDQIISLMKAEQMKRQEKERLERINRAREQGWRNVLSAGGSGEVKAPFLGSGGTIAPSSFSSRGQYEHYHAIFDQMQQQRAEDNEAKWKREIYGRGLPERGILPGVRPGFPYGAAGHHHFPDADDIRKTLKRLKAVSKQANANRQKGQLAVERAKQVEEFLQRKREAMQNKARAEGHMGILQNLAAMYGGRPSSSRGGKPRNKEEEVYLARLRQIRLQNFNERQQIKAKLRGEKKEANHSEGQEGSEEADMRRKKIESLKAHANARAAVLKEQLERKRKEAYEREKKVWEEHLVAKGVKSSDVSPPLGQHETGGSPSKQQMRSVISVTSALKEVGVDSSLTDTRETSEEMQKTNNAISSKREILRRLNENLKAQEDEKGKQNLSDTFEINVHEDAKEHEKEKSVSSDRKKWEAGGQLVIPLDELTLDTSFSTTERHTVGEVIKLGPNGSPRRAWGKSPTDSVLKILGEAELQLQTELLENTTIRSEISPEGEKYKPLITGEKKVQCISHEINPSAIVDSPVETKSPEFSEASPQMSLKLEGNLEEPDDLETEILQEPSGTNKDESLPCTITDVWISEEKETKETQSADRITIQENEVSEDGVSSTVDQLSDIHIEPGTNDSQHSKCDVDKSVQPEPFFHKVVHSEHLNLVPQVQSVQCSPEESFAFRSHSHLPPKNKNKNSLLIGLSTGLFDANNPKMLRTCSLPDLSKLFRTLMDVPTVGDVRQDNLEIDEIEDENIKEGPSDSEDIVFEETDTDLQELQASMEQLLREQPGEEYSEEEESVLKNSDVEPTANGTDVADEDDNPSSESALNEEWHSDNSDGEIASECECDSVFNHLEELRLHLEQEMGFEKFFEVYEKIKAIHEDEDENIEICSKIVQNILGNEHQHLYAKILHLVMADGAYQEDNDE

[2] = biological target: T2, 3xFLAG-NEK1 D146A (KD) (human) (UniProt Q96PY6); assay: as above
T2 sequence: T1 sequence with D146A

B1: GFP-C21ORF2 (protein, UniProt O43822-1 1-256)
chain: MKLTRKMVLTRAKASELHSVRKLNCWGSRLTDISICQEMPSLEVITLSVNSISTLEPVSRCQRLSELYLRRNRIPSLAELFYLKGLPRLRVLWLAENPCCGTSPHRYRMTVLRTLPRLQKLDNQAVTEEELSRALSEGEEITAAPEREGTGHGGPKLCCTLSSLSSAAETGRDPLDSEEEATSGAQDERGLKPPSRGQFPSLSARDASSSHRGRNVLTAILLLLRELDAEGLEAVQQTVGSRLQALRGEEVQEHAE
With B1 the binding [1] was “binds”.

B2: 3xHA-C21ORF2 (protein, UniProt O43822-1 1-256)
chain: B1 chain
For B2, the binding [1] was “binds” and the binding [2] was “binds”.
